{"source": "PubChem BioAssay AID504333", "about": "(National Center for Advancing Translational Sciences (NCATS), 2011)", "note": "Where “and” joins values, the source holds several entries; their conditions need not be identical. Identical values can stand only once. The whole screen tested about 360,000 compounds, of which about 16,000 (4.4%) were called active. The inconclusive results got no clear call from the source; some entries with a clear call stand among them for comparison. Calls follow the shape of the dose curve; as a rule, active = well fitted inhibition curve with a large enough effect; inconclusive = small, poorly fitted or top-dose-only effect; inactive = no such curve, though single readings can be large or run the other way. A potency beside an inconclusive call is a rough fit, not a confirmed value. Potency is read from the fitted curve at half-maximal effect; tags tell the direction and shape of the fitted curve."}
{"target": "Bromodomain adjacent to zinc finger domain protein 2B (Homo sapiens) (UniProt Q9UIF8)", "sequence (Q9UIF8 whole entry, looked up, the tested form may be a part)": "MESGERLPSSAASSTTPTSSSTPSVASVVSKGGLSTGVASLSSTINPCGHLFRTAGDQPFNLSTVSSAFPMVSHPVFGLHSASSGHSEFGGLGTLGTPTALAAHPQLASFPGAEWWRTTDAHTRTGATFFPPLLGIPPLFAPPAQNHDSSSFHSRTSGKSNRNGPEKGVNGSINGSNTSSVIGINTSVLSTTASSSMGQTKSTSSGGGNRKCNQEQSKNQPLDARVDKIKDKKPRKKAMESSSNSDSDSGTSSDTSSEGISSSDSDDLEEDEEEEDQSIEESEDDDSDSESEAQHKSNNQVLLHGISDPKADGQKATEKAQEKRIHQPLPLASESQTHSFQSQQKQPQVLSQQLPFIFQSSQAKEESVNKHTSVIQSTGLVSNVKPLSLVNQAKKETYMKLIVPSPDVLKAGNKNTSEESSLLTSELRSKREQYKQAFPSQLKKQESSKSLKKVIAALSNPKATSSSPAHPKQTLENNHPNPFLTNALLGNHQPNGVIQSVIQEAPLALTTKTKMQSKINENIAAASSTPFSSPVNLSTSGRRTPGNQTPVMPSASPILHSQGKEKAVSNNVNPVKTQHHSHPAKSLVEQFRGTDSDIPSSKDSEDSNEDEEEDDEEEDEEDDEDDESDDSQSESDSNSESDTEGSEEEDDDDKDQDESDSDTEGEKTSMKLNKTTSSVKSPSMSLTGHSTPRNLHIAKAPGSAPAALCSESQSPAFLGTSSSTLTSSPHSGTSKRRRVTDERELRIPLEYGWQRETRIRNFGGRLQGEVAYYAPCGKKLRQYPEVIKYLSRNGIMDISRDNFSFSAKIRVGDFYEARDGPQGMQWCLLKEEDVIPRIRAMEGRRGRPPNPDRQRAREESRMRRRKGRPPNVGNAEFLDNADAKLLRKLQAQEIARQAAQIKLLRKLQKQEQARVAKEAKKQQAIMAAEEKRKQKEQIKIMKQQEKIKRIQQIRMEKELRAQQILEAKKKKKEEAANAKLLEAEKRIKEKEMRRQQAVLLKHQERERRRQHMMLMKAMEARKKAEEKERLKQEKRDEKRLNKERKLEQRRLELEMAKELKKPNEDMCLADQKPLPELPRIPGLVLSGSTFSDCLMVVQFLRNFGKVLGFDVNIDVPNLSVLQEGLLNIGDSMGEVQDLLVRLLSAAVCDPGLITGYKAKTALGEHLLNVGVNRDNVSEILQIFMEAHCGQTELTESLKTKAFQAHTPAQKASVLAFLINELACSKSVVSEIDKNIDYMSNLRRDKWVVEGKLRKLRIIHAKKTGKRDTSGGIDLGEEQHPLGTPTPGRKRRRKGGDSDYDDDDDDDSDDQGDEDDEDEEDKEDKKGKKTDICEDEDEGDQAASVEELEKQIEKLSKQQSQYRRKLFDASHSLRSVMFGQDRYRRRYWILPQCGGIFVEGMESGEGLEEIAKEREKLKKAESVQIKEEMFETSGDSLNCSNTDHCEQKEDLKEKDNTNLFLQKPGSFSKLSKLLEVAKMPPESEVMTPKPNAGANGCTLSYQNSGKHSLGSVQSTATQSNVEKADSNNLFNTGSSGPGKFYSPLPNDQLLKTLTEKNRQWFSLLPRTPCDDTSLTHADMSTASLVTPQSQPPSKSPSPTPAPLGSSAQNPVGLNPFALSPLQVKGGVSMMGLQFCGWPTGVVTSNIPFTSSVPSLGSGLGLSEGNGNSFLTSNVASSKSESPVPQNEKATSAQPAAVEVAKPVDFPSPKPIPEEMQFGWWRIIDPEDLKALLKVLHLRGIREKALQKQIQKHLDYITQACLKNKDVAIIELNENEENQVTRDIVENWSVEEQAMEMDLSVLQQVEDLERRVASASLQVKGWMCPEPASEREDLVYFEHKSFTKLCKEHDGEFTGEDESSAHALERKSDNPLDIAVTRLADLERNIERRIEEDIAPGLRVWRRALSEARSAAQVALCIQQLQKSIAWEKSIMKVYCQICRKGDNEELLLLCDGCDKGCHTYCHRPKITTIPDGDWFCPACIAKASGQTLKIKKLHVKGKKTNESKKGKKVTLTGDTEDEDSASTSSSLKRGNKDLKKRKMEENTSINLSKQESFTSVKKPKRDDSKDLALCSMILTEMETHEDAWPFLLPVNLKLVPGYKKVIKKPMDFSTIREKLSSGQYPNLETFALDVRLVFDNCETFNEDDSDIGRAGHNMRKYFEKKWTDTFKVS", "test": "qHTS Assay for Inhibitors of BAZ2B; also: nearly all actives have a fitted effect of over 60% in size", "details": "AlphaScreen BAZ2B-H3K14Ac peptide displacement; series mostly up to 114 µM", "procedure,_shortened": "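In this displacement format the biotinylated H3(5-23) peptide acetylated at Lys14 serves as ligand at 50 nM, with BAZ2B at 50 nM in PBS pH 7.4 containing 0.01% Tween-20. Donor and acceptor beads are 10 ug/mL final.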"}
{"smiles": "COc1ccc(OCc2cc(/C=N\\NC(=O)c3ccccc3)ccc2OC)cc1", "Potency": "inactive"}
{"smiles": "COc1ccc(N2CCN(C(=O)CCCn3c(=O)c4cccn4c4cccnc43)CC2)cc1", "Potency": "inconclusive: 31.6 µM [inhibitor, full curve]"}
{"smiles": "CCOC(=O)c1c(NC(C)=O)sc2c(O)c(CN3CCN(CC)CC3)ccc12", "Potency": "inconclusive: 79.4 µM [inhibitor, single point]"}
{"smiles": "C/C(=N\\Nc1nc2ccccc2[nH]1)c1ccc([N+](=O)[O-])cc1", "Potency": "inconclusive: 35.5 µM [inhibitor, partial curve]"}
{"smiles": "CCN1CCN(S(=O)(=O)c2ccc(Cl)c(C(=O)NC3CCC(C)CC3)c2)CC1", "note": "(configuration not stated)", "Potency": "inactive"}
{"smiles": "CCCn1c2c(c(=N)c3c1CCC3)CCC2", "Potency": "inconclusive: 79.4 µM [inhibitor, single point]"}
{"smiles": "O=C(Nc1ccc(S(=O)(=O)Nc2ccccc2F)cc1)N1CCCCC1", "Potency": "inconclusive: 89.1 µM [inhibitor, partial curve]"}
{"smiles": "CCN(CC)c1ccc(SS(=O)(=O)O)cc1", "Potency": "inconclusive: 20 µM [inhibitor, single point] and inconclusive: 79.4 µM [inhibitor, single point]"}
{"smiles": "Cc1c(-c2cccc(Cl)c2)nc2ccccc2c1C(=O)OCC(=O)N(C)C1CCS(=O)(=O)C1", "note": "(configuration not stated)", "Potency": "inconclusive: 25.1 µM [inhibitor, full curve, poor fit]"}
{"smiles": "CC(=O)Nc1ccc(C(=O)CN2CCN(c3ccccc3)CC2)cc1", "Potency": "inconclusive: 50.1 µM [inhibitor, partial curve]"}
{"smiles": "CC(=O)N1N=C(c2ccccc2)OC1c1ccc([N+](=O)[O-])s1", "note": "(configuration not stated)", "Potency": "inconclusive: 39.8 µM [inhibitor, partial curve]"}
{"smiles": "Cc1ccc(C)n1-n1c(C)nc2sc3c(c2c1=O)CCCCC3", "Potency": "inconclusive: 70.8 µM [inhibitor, single point]"}
{"smiles": "Cc1ccc([C@@H]2CC=C(C(=O)O)[C@H](c3cccc(Cl)c3)N2S(=O)(=O)c2ccc(C)cc2)cc1", "Potency": "inconclusive: 79.4 µM [inhibitor, single point]"}
{"smiles": "CCN(CC)c1cccc(OCC(=O)N(C)CCC#N)c1", "Potency": "inconclusive: 79.4 µM [inhibitor, single point]"}
{"smiles": "Cc1ccc2nc(SCC(=O)Nc3ccc(F)c([N+](=O)[O-])c3)[nH]c2c1", "Potency": "inconclusive: 50.1 µM [inhibitor, partial curve]"}
{"smiles": "CCO[C@@H]1OC(C(N)=O)=C[C@H](C2CCCCC2)[C@H]1CCCO", "Potency": "inactive"}
{"smiles": "CN1C(=O)N(C)C2(c3ccccc3)Nn3c(s/c(=C/c4ccco4)c3=O)=NC12c1ccccc1", "note": "(configuration not stated)", "Potency": "inconclusive: 79.4 µM [inhibitor, single point]"}
